Here are results for 56 variants from the RNAGym collection of RNA variant scans (doi:10.7554/elife.90254).

The source gives no read counts; variants with many changes may rest on few reads.

The chains are these.
B1: LINE1-mini (parent)
chain: GGCAGAGCUCAACACAGCGUGGCAAAGUGGCUGUGGCUAGACUGCC

This series covers variants of B1. The series is described as follows: self-cleavage, relative activity (ratio to wild type); higher = more cleavage; in vitro, sequencing; the parent is a self-cleaving ribozyme.
As for GGCCGAGAUCAGCACAGCGUGGCAAAGUGGCUGUGGCUAGACUGCC [A4C C8A A12G], the self-cleavage is 0.27. As to GGCCGAGCUCAUCACAGCGUGGCAAGGUGGCUGUGGCUAGACAGCC [A4C A12U A26G U43A], the self-cleavage is 0.06. With GGCCGAGGUCAACACAGCGUGGCAAAGUGGCUGUGGCUAUACUGCC [A4C C8G G40U] the figure was 0.1.

For the variant GGCCGAGCUCAACACGGCGUGGCAAAGAGGUUGUGGCUAGACUGCC [A4C A16G U28A C31U], the self-cleavage was determined as 0.02. With GGCCGAGCUCAACACAGCGUGGCACAGUGGCUGUGGCUAGGCGGCC [A4C A25C A41G U43G], the self-cleavage stood at 0. For GGCCGAGCUCAUCACAGCGUGGCAAAGUGGCUUUAGCUAGACUGCC [A4C A12U G33U G35A], the self-cleavage came out at 0.

Take GGCCGAGCUCUACACAGCGUGGCAAAGUCGCUGUGGCUCGAAUGCC [A4C A11U G29C A39C C42A]: the self-cleavage turned out to be 0.

As for GGCCGAGAUCAACACAUCGUGCCGAAGUGGCUGUGGUUAGACUGAC [A4C C8A G17U G22C A24G C37U C45A], the self-cleavage is 0.1. As for GGCCGAGCUCACCACAAUGUUGCAAAGUGGCUGUAGCUAGACUGCC [A4C A12C G17A C18U G21U G35A], the self-cleavage came to 0.06. Consider GGCCGAGCUCAACGCAGCGGGGCAAAGUGGCUGUGGCUAGACUGCC [A4C A14G U20G], for which the self-cleavage is 0.67. Turning to GGCCGAGCUCAACACGGCCUGGCAAAGUGUCUGUGGCUAGACUGCC [A4C A16G G19C G30U], the self-cleavage was determined as 0.04. The same measure for GGCCGAGCUCAACUCAGCGUGGCAAAGUGGCUGUGUCUAGACUGCC [A4C A14U G36U]: 0.06. With GGCCGAGCUCAGCACAGCGUGGCAAAGUACCUGUGGCUAGACUGCC [A4C A12G G29A G30C] the figure was 0.17; with GGCCGAGCUCAUCACAGCGUGGCAAAAUGGCUAUGGCUAGACUGGG [A4C A12U G27A G33A C45G C46G], 0.01; with GGCCGAGUACGCCACAGCGAGGCAAAGUGGCGGUGGCUAGACUGCC [A4C C8U U9A A11G A12C U20A U32G], 0.01. In the case of GGCCGAGCUCAACACCGCGUGGCAAAGUGGCUGUGGCUAUACUGCC [A4C A16C G40U], the self-cleavage stood at 0.47. For the variant GGCCGAGCUCAACACAGCGUGGCAAGCUGGCGGUGGCUAGACUGCA [A4C A26G G27C U32G C46A], the self-cleavage stood at 0.02. As to GGCCGAGCUCUACACAGCGUGGCAAAGUGGCUGUGGCUGGAUUGCC [A4C A11U A39G C42U], the self-cleavage turned out to be 0.04. GGCCGAGCUCAACACAGCGUGGCAUAGUGGCUGUGGCUCCACUGCC [A4C A25U A39C G40C]: the self-cleavage came to 0.06. The same measure for GGCCGAGAUCAGCACAGCGUGGCAAAGUGGCUGUGGCUAGACUUCC [A4C C8A A12G G44U]: 0.14; for GGCCGAGGUCAACACAGCGUGUUAAAGUGGCUGCGGCUAGACUGCG [A4C C8G G22U C23U U34C C46G]: 0.04; for GGCCGAGGUCAACAAAGCGUGGAAAACUGGCUGUGGCUAGACUGAC [A4C C8G C15A C23A G27C C45A]: 0.01.

For GGCCGAGGUCAACACAGCGUGGCAAAUUGGCUGUGGCUAGACUGCC [A4C C8G G27U], the self-cleavage came out at 0.15. With GGCCGAGUAAAACACAGCGUGGCAAAGUGGCUGUGGCUAGACUGCC [A4C C8U U9A C10A], the self-cleavage was determined as 0.03. As for GGCCGAGCUCAGCACAGCGCGGUAAAGUGGUUGUGGCUAGCCUGCC [A4C A12G U20C C23U C31U A41C], the self-cleavage came out at 0.05. With GGCCGAGCUCAACUCAGCGUGGCAAAUUGGCUGUGGCUAGACUCCC [A4C A14U G27U G44C] the figure was 0.03; with GGCCGAGCUCUACACAGCGUGGCAAAGUGGCUGUGGCUGGACUGCC [A4C A11U A39G], 0.

For the variant GGCCGAGUUCAACACAGCGUGGCAAAGUGUCUGUGGCUAGACUGCC [A4C C8U G30U], the self-cleavage was 0.23. As for GGCCGAGCUCAACACCCCGUGGCAAAGUGGCUGUGGCUAGACUGCC [A4C A16C G17C], the self-cleavage is 0.09.

For the variant GGCCGAGCUCAACACCGCGUGGCAAAGUGGCUGUUGCUAGACUGGC [A4C A16C G35U C45G], the self-cleavage was determined as 0.22.

As to GGCCGAGCUCAACACAGCGUGGCAAUCUGGCUGUGGCUAGCCUGUC [A4C A26U G27C A41C C45U], the self-cleavage is 0.02. For GGCCGAGGUCAACACAGCGUGGGAAAGUGGCUGUGGCUAGACUGCC [A4C C8G C23G], the self-cleavage was 0.09.

Take GGCCGAGCUCAACACCGCGCGGCAAAGUGGCUGUGGCUAGACUGCC [A4C A16C U20C]: the self-cleavage was determined as 0.08. Turning to GGCCGAGCUCAACACAGCGUGGCAGAGGGGCUGUGGCGAGACUGCC [A4C A25G U28G U38G], the self-cleavage is 0.01. With GGCCGAGGUCAACACAGUGUGGCAUAGUGGCUGUGGCUAGACUGCC [A4C C8G C18U A25U], the self-cleavage was 0.01. On to GGCCGAGCUAAACACAGCGUUGCAAAGUGGCUGUGGCUAGACUGCC [A4C C10A G21U], for which the self-cleavage is 0.05. Take GGCCGAGCUCAACCUAGCGUGGCAAGGUGGCUGUGGCUAGAAUGCC [A4C A14C C15U A26G C42A]: the self-cleavage turned out to be 0.02.

Turning to GGCCGAGCUCAACACUGCGUGGCAUAGUGGCUGUGGCUAGACUGCC [A4C A16U A25U], the self-cleavage was 0.21. The same measure for GGCCGAGCUCACCACAGCGUGGCAAACUGGCUGUGUCUAGACUGCC [A4C A12C G27C G36U]: 0.01; for GGCCGAGCUCAACACAGCGUGGCAAAGUGGCUGUGGCUAGCCCGCC [A4C A41C U43C]: 0.03. For GGCCGAGCUCAACUCAGCGUGGCAAAGUGGCUGUGGCUAGAUUGGC [A4C A14U C42U C45G], the self-cleavage was 0.02. Turning to GGCCGAGAUCAACACAGCGUGGCAAAGUGGCUUUGGCUAGACUGCC [A4C C8A G33U], the self-cleavage was 0.26.

As to GGCCGAGCUCAACUCAGCGUGACAAAGUGGCUGUGGCUCGACUGCC [A4C A14U G22A A39C], the self-cleavage turned out to be 0.09. With GGCCGAGCUCAACACAGCGUGGCAAAGUGGCUGUGGCUAGUCUGUC [A4C A41U C45U] the figure was 0.08. For the variant GGCCGAGGUCGACACAGCGUGGCAAAGUGGCUGUGGAUAGACUUCC [A4C C8G A11G C37A G44U], the self-cleavage was found to be 0. As to GGCCGAGCUAACCACAGCGUGGCAAAGUCGCUGUGGCUAGACUGCC [A4C C10A A12C G29C], the self-cleavage turned out to be 0. Take GGCCGAGCUCAACGCAGCGUGGCAAAGUGGAUUUGGCUAGACUGCC [A4C A14G C31A G33U]: the self-cleavage was 0.02. On to GGCCGAGCUCAACACCGCGUGUCAAAGUCGCUGUGGCUAGACUGCC [A4C A16C G22U G29C], for which the self-cleavage stood at 0.26. Take GGCCGAGCUCAACACUGCGUGGCAAAGUGGCUGUGGCUAGAUUGCC [A4C A16U C42U]: the self-cleavage is 0.02.

As for GGCCGAGCUCACCACAGCGUUGCAAAGUUGCUGUCGCUAGACUGCC [A4C A12C G21U G29U G35C], the self-cleavage was found to be 0.03.

Consider GGCCGAGCUAAACACAGCGUGGCAAAGUGGCUUUGGCUAGACUGCC [A4C C10A G33U], for which the self-cleavage is 0.03. For the variant GGCCGAGCUCAACACUGCGUGGCAAAGUGGCUGUGGCGAGACUGCC [A4C A16U U38G], the self-cleavage came out at 0.01. With GGCCGAGCUCAACACAGCGUGGCAGAGUGGCUGUGCUUAGACUGCC [A4C A25G G36C C37U], the self-cleavage is 0.03. With GGCCGAGCUCAACCCAGCGUGGCAAAGUGGCUUUGGCUAGACUGCC [A4C A14C G33U] the figure was 0.02; with GGCCGAGCUCAACUCAGCGUGGCAAAGUGCCUGUGGCUAGACUGCC [A4C A14U G30C], 0.12; with GGCCGAGCUCAACACUGCGUGUCAAAGUAGCUGUGGCUAGACUGCC [A4C A16U G22U G29A], 0.04.
